About 340 (0.77%) of roughly 44,000 compounds were called active. About 5% were inconclusive and are not listed. The call rests on the fitted dose curve; in most records, active means well fitted inhibition curve with a large enough effect; inconclusive means small, poorly fitted or top-dose-only effect; inactive means flat fitted curve, though single readings scatter. The list shows a part of the results.
Assay: Acumen qHTS Assay for Inhibitors of the mTORC1 Signaling Pathway in MEF (Tsc2-/-, p53-/-) Cells: Sytravon;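 further: plate controls were DMSO for no effect and rapamycin for full effect; nearly all actives have a fitted effect of over 50% in size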
Conditions: phospho-rpS6 immunofluorescence/PI, 24 h; series mostly up to 38.3 µM; activity change, negative = inhibition: at the top concentration
How it was run: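 Plate MEFs (Tsc2-/-, p53-/-, empty vector) in DMEM/10% FBS; after 24 h add compound, incubate 24 h at 37 degree Celsius; fix in PFA/TX-100, block, stain phospho-rpS6 and 10 uM PI; scan at 488 nm; report % positive cells.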

Activity change, negative = inhibition, inactive:
Cc1ccccc1Nc1c(-c2cc(Br)ccc2F)nc2ccccn12 0.441%
CCOC(=O)C1CCC(CN(Cc2ccccc2)S(=O)(=O)c2ccc(Br)cc2)CC1 (centres undefined) -25.2%
Cc1cccc(/C=C(\C#N)c2nc3ccccc3c(=O)[nH]2)c1 -2.74%
COc1cc(NC(=O)CCS(=O)(=O)c2ccc3c(c2)CC(=O)N3C)cc(OC)c1OC 3.62%
COc1ccc(/C=C/c2nc(C#N)c(NCc3ccc(F)cc3)o2)cc1OC -26.9%
CCOc1ccc(-c2cc(C(=O)Oc3ccc(C#N)cc3)no2)cc1 -1.57%
COc1ccc(N2CCN(CCCNC(=O)c3cc(Nc4ccc(OC)cc4OC)nc4ccccc34)CC2)cc1 -8.59%
O=C(CCS(=O)(=O)c1ccccc1)N(Cc1cccnc1)c1nc2ccc(Cl)cc2s1 0.451%
CCCN1Cc2cccc(C(=O)Nc3ccc(C(C)=O)cc3)c2C1=O 0.499%
COc1cccc(C(=O)c2c(N)c(-c3nc(-c4ccccc4)cs3)c3ccccn23)c1 3.88%
Cc1cccc(-n2c(=O)c3c(c4cc(C)ccc4n3C)n(CC(=O)N3CCCC3)c2=O)c1 -4.42%
O=C(CN1C(=O)COc2ccccc21)NCCc1ccc(Cl)cc1 10.7%
CCOc1ccc(N(CC)S(=O)(=O)N2CCCC(C(=O)Nc3ccc(C(C)=O)cc3)C2)cc1 (centres undefined) -8.53%
Cc1ccc(CNC(=O)c2ccc(NC(=O)N3CCSc4ncccc43)cc2)cc1 -6.46%
CCc1ccc(-n2c(=O)c3c4c(sc3n(CC(=O)N3CCCCC3CC)c2=O)CCC4)cc1 (centres undefined) 1.16%
Cc1c(CCC(=O)NCCc2ccc(Cl)cc2)c(=O)oc2c(C)c(O)ccc12 0.453%
CCc1ccc(NC(=O)CN2C(=O)C(c3ccc(Cl)cc3)=NC23CCCCC3)cc1 0.933%
CCOc1ccccc1NC(=O)c1nc(SC(C)C)ncc1Cl 5.28%
Cc1c(CNC2CCCCC2)c(C(=O)O)c(C)n1Cc1cccc(Cl)c1 -0.419%
Cc1ccc(NC(=O)Cn2c(=O)n(Cc3nc(C)no3)c(=O)c3ccccc32)c(Cl)c1 -1.43%
Cc1cccc(C)c1OCCCn1c(CCNC(=O)C2CCCCC2)nc2ccccc21 -1.29%
Cc1c(C(=O)Nc2cccc(Cl)c2)sc2nc3n(c(=O)c12)N=C(c1cccc(Br)c1)CS3 4.89%
COc1ccc(CNC(=O)c2ccc(N3CCCC3)c(NC(=O)NCc3ccc(C)cc3)c2)cc1 0%
Cc1nn2c(-c3cccc(NC(=O)c4ccccc4)c3)nnc2c2ccccc12 -2.6%
COc1ccc(-c2cc(C)no2)cc1S(=O)(=O)N1CCOc2ccccc21 -6.7%
Cc1cccc(N2CCN(C(=O)CCc3nnc4n(CC(C)C)c(=O)c5ccccc5n34)CC2)c1C 0.914%
O=C(Cc1ccccc1)N(Cc1cccnc1)c1nc2c(F)cc(F)cc2s1 -3.05%
CC(C)c1ccc(OCC(=O)NC(Cc2c[nH]c3ccccc23)C(=O)O)cc1 (centres undefined) -12.1%
CCOC(=O)c1c(C)oc2ccc(N(C(=O)Oc3ccccc3)S(=O)(=O)c3ccc(CC)cc3)cc12 -3.84%
O=C(Nc1cc(Cl)cc(Cl)c1)c1ccc(F)c(S(=O)(=O)N2CCc3ccccc32)c1 -8.8%
COc1ccc(CCNC(=O)c2ccc3c(c2)N(Cc2c(F)cccc2Cl)C(=O)CS3)cc1OC 3.78%
Cc1cccc(OC(=O)CSc2nnc(CNC(=O)c3ccccc3)o2)c1C 0%
O=C(Nc1ccc(F)cc1)c1oc2ccccc2c1NC(=O)C12CC3CC(CC(C3)C1)C2 -2.83%
CCc1ccccc1NC(=O)CN(Cc1ccccc1)S(=O)(=O)c1ccc(Br)cc1 14%
COc1ccc(NC(=O)C(C)n2nc(-c3ccc(C)c(C)c3)ccc2=O)cc1OC (centres undefined) -4.4%
CCc1nnc(SCc2cc(C)ccc2C)c2cc3sc(C)cc3n12 -2.2%
COc1cccc(NC(=O)CSC2=Nc3ccccc3C3=NC(CC(=O)NC4CCCCC4)C(=O)N23)c1 (centres undefined) -6.41%
CCOC(=O)c1c(C)[nH]c(C)c1S(=O)(=O)N1CCC(C(=O)N2CCN(c3ccccc3F)CC2)CC1 5.53%
Cc1ccc(-n2c(SCc3cccc(F)c3)nc3[nH]ncc3c2=O)cc1C 1.22%
Cc1ccc2c(c1)-c1cc(C)nn1C(c1cc(Br)ccc1O)N2 (centres undefined) -19.4%
COc1cc(OC)c(OC)cc1/C=C/c1nc2cc3ccccc3cc2c(=O)n1-c1ccc(F)cc1F 10.5%
COc1ccc(C2CC(=O)c3cc(-c4nc(-c5ccc(Cl)cc5)c(C)s4)c(=O)[nH]c3C2)cc1 (centres undefined) -13.4%
O=S(=O)(Nc1nc2n(n1)C(c1ccc(F)cc1)C=C(c1ccccc1)N2)c1ccccc1 (centres undefined) -9.55%
Cc1ccc2ncc(C(=O)Nc3ccc(F)cc3F)c(=O)n2c1 2.48%
COC(=O)c1ccc2c(=O)n(CCCCCC(=O)NCc3ccc(Cl)cc3)c(=O)[nH]c2c1 -10.2%
CCc1ccc(CNC(=O)c2ccc(NC(=O)N3CC(C)Sc4ccccc43)cc2)cc1 (centres undefined) 1.06%
Cc1cc(C)c2c(=O)cc(C(=O)Nc3ccccc3C(F)(F)F)oc2c1 1.35%
CC(=O)c1ccc(N2CCN(c3ccc(NC(=O)c4ccc(F)cc4)cc3C(=O)O)CC2)cc1 -3.5%
Cc1cc(NC(=O)CCS(=O)(=O)c2cc3c4c(c2)CCN4C(=O)CC3)ccc1Br -0.48%
CC(C)(C)c1ccc(C(=O)NCC(c2cccs2)S(=O)(=O)c2ccccc2)cc1 (centres undefined) -9.6%
CC(C)OCCCNC(=O)c1ccc2c(c1)NC(=O)c1ccccc1S2 -0.0176%
COC(=O)c1ccccc1NC(=O)CSc1nc2ccccc2nc1Cc1ccccc1OC -16.5%
CCOC(=O)c1c(-c2ccc(Br)cc2)csc1NC(=O)c1ccc(F)cc1 5.28%
O=C(CCS(=O)(=O)c1cc(Br)cc2c1N(C(=O)C1CC1)CC2)NCc1ccc(Cl)cc1 -4.93%
CN(C(=O)c1cc2nc(-c3ccco3)cc(C(F)(F)F)n2n1)c1ccc(OC(F)(F)Cl)cc1 -4.42%
O=C(Nc1cc(-c2nc3ccccc3o2)ccc1Cl)c1ccc(N2CCCCC2)c([N+](=O)[O-])c1 3.18%
COc1ccc(C2c3c(n(C)c4ccccc34)C(=O)N2CC(=O)Nc2ccc(C)c(Cl)c2)cc1 (centres undefined) -11%
Cc1ccc(NC(=O)Cn2cc(S(=O)(=O)c3ccc(C)cc3)c(=O)c3cc4c(cc32)OCO4)cc1 -0.86%
Cc1ccc(-c2nc(SCCOc3ccccc3C)n3[nH]c(=O)cc3n2)cc1 10.3%
CCOC(=O)C1CCN(c2nc3c(S(=O)(=O)c4ccccc4)nnn3c3ccsc23)CC1 -0.781%
CCc1ccccc1N(CC)C(=O)c1c(C)oc2ncnc(N3CCOCC3)c12 5.92%
Cc1ccccc1C(=O)Nc1ccc(OCc2cc(=O)n3cccc(C)c3n2)cc1 5.25%
O=c1c2oc3ccccc3c2n(Cc2ccc(Cl)cc2)c(=O)n1Cc1ccco1 -6.73%
O=C1COc2cc(S(=O)(=O)NCc3ccco3)c(Cl)cc2N1 -0.25%
CC1=C(c2ccc(C)c(C)c2)S(=O)(=O)N=C1N1CCC(C(=O)N2CCC(C(N)=O)CC2)CC1 5.65%
Cc1cccc(CN2CCC(CNC(=O)c3c(C)oc4ncnc(N5CCCCC5)c34)CC2)c1 -8.49%
CCN(C(=O)C1CCC(CNS(=O)(=O)c2cccc3nsnc23)CC1)c1ccc(C)c(C)c1 (centres undefined) -7.43%
CC(Sc1nc(=O)cc(N)n1CCc1ccccc1)C(=O)Nc1ccc(Cl)cc1 (centres undefined) -3.37%
CC(=O)N1CCOc2cc(S(=O)(=O)NC(C)c3ccccc3)c(Cl)cc21 (centres undefined) -0.6%
Cc1cccc(C(=O)Nc2sc3c(c2C(=O)N2CCCCC2)CCC(C)C3)c1 (centres undefined) 11.2%
O=C(CCc1cn(Cc2ccc(F)cc2)c2ccccc12)NCCc1ccc(Cl)cc1 -8.59%
CCN(c1ccccc1)c1nnc(NC(=O)Nc2ccc(Br)cc2)s1 4.86%
Cn1cnc(S(=O)(=O)N2CCC(C(=O)NCc3ccccc3Cl)CC2)c1 5.91%
COc1cccc(NC(=O)CSc2nc3ccc(NC(=O)c4cccs4)cc3s2)c1 -2.25%
CCOC(=O)c1c(NC(=O)/C=C/c2ccc(C(C)C)cc2)sc2c1CCC2 16%
Cc1ccc(NC(=O)Nc2nnc(N3CCCC3)s2)cc1 -6.32%
CCc1ccc(OC(C)c2nc(-c3ccc(-n4cccc4)cc3)no2)cc1 (centres undefined) -12.4%
CNS(=O)(=O)c1cn(CC(=O)N2CCN(c3ccccc3F)CC2)cc1S(=O)(=O)NC -0.65%
CCOc1ccc(CCNc2ncnc3onc(-c4ccc(Cl)cc4)c23)cc1OCC -15.8%
COCc1nc2cccnc2n1C1CCN(S(=O)(=O)N(C)C)CC1 5.75%
COc1ccc(NC(=O)C(c2ccc(C)cc2)N(C)C(=O)/C=C\c2ccc3c(c2)OCO3)cc1 (centres undefined) 1.79%
O=S(=O)(NCc1csc(-c2ccccc2)n1)c1cccc(F)c1 -0.301%
CCOC(=O)c1ccc(NC(=O)CCc2c(C)nc3c(c(C)nn3-c3ccccc3)c2C)cc1 -0.88%
O=C(Cn1c(SCc2cccc(F)c2)nc2cccnc21)Nc1ccc(F)c(Cl)c1 -3.7%
CC(=O)c1ccc(NC(=O)CCc2c(C)nc3c(c(C)nn3-c3ccc(C)cc3)c2C)cc1 -3.08%
COc1ccccc1NC(c1ccc(Cl)cc1)c1nnc(-c2cccc(F)c2)o1 (centres undefined) 2.04%
CC(C)(C)c1ccc(Cn2c(Cc3ccccc3)nc3ccccc32)cc1 -8.86%
Cc1nn2c(=O)cc(CN(C)c3ccccc3)nc2s1 -0.393%
CCOC(=O)c1ccccc1NC(=O)CSc1ncc(CO)n1Cc1ccc(C)cc1 -14.3%
CCOc1ccc(-c2nonc2NC(=O)c2oc3ccc(F)cc3c2C)cc1 -4.01%
O=C(COc1ccccc1Cl)Nc1cc(-c2ccccc2F)nn1-c1ccccc1 0%
Cc1cc(C)cc(NC(=O)CN(c2cc(C(F)(F)F)ccc2Cl)S(=O)(=O)c2ccccc2)c1 5.46%
COc1ccc(C2c3c(oc4ccccc4c3=O)C(=O)N2Cc2ccc3c(c2)OCO3)cc1 (centres undefined) -0.491%
COC(=O)c1ccccc1NC(=O)C1=CC(c2ccc(C)cc2)=NS(=O)(=O)N1C 4.73%
